# Test results: PubChem BioAssay AID1346428 (National Center for Advancing Translational Sciences (NCATS), 2018)
# Values joined by “and” are separate entries in the source; they are usually repeats but may differ in a detail not shown here. Equal values may be shown once. The campaign covered roughly 48,000 compounds. About 1,200 (2.5%) were called active. About 2% were inconclusive and are not listed.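 Rule for the calls: active = activation of at least 60% and not above a set upper limit (about 1 call in 100 departs from these limits); inconclusive = activation of 40% to 60%, or above that upper limit; inactive = activation under 40%.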 This is one part of the list.
# Biological target: Probable G-protein coupled receptor 32 (Homo sapiens) (UniProt O75388)
# Assay: qHTS for Agonists of Human Resolvin D1 Receptor DRV1; note: 0% is about no effect
# Conditions: CHO-K1 GPR32 beta-arrestin PathHunter luminescence, 90 min; at 76.9 µM; hits give high values; zero percent set by DMSO-only wells
# Outline: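 GPR32 activation in stably transfected CHO-K1 cells, detected as beta-arrestin recruitment by enzyme-fragment complementation. Compound exposure: 90 min, 37 °C.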
# UniProt O75388, sequence (O75388 whole entry, looked up): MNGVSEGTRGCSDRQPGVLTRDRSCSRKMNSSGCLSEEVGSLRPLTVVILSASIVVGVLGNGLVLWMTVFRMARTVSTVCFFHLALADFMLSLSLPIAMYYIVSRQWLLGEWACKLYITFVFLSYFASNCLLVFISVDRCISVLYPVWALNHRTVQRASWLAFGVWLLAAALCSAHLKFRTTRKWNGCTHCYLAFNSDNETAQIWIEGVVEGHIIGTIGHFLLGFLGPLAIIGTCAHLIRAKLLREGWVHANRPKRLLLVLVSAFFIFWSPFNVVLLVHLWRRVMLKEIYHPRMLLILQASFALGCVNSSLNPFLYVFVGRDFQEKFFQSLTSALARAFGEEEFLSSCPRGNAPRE
row,Compound,activation
1,Cc1sc2c(c1C)c(=O)n(-c1cccc(C(F)(F)F)c1)c(=O)n2Cc1ccc(F)cc1,inactive: -1.01%
2,COc1cc(NC(=O)CSC2=Nc3ccccc3N=C(c3ccc(F)cc3)C2)cc(OC)c1,inactive: -3.38%
3,COc1ccc(CNC(=O)c2cnc3cc(C)ccn3c2=O)cc1,inactive: 17.2%
4,NC(=O)c1ccccc1,inactive: -8.5%
5,CCc1ccc(N(CC)C(=O)Cn2c(=O)oc3ccccc32)cc1,inactive: -10.6%
6,Cc1ccnc(NS(=O)(=O)c2cc(-c3cc(C)no3)ccc2C)c1,inactive: -2.34%
7,Cc1ccc(-n2ncc(C(=O)Nc3ccc4c(c3)OCO4)c2C2CCN(C(=O)OC(C)(C)C)CC2)cc1,inactive: -26.6%
8,Cc1nc2scc(C)n2c(=O)c1S(=O)(=O)Nc1ccc(N2CCOCC2)cc1,inactive: 4.86%
9,COc1cccc2cc(C(=O)NCCc3c(C)[nH]c4ccc(Br)cc34)c(=O)oc12,inactive: 6.09%
10,Cc1nn(S(=O)(=O)c2ccc(F)cc2)c(C)c1S(=O)(=O)N1CCC(C)CC1,inactive: 39.2%
11,COc1ccc(NC(=O)C2CCCN(S(=O)(=O)c3ccc4c(c3)CCCC(=O)N4)C2)c(OC)c1 (centres undefined),inactive: 24.2%
12,CC(=O)c1cccc(NC(=O)CCS(=O)(=O)c2ccc(Br)s2)c1,inactive: 12.6%
13,O=C(CN1C(=O)CC(c2ccccc2)Sc2ccccc21)Nc1cccc(Cl)c1 (centres undefined),inactive: -0.62%
14,Cc1ccc(S(=O)(=O)c2cn(Cc3ccc(F)cc3)c3cc(F)c(F)cc3c2=O)cc1,inactive: -22%
15,CCOC(=O)c1cc2c(=O)n3ccccc3nc2n(CC(C)C)c1=NC(=O)c1cc2ccccc2o1,inactive: -18.2%
16,COc1ccc(/C=C/C(=O)Nc2nc3n(n2)C(c2ccccc2)C=C(c2ccccc2)N3)cc1 (centres undefined),inactive: -11.2%
17,Cc1ccc(-c2cnc(NCc3ccc(C(F)(F)F)cc3)n2C)cc1,inactive: -35.7%
18,CCN(C(=O)Cn1c(=O)oc2cc(Cl)ccc21)c1cccc(C(F)(F)F)c1,inactive: -17%
19,Cc1ccc(CCNC(=O)C2CCN(c3nnc(-n4cccc4CNc4ccc(C)cc4)s3)CC2)cc1,inactive: -36.9%
20,CC(C)(C)NC(=O)c1cnn2c(C(F)F)cc(-c3ccccc3)nc12,inactive: -16%
21,CN1C(=O)C2(c3ccccc31)N(c1cccc(F)c1)C(=O)CS2(=O)=O (centres undefined),inactive: -10.4%

row,Compound,activation
1,COCCCNC(=O)c1cc(-c2cccnc2)nc2ccc(S(=O)(=O)N3CCC(C)CC3)cc12,inactive: -5.94%
2,O=C(NCc1ccccc1Cl)c1cnc2sc(N3CCCCC3)nn2c1=O,inactive: 10.9%
3,COc1ccc(Cl)cc1NC(=O)c1c(NCc2sccc2C)sc2c1CCCC2,inactive: -1.68%
4,Clc1ccccc1CNc1nc2ccccc2c2nc(-c3cccnc3)nn12,inactive: -8.01%
5,O=S(=O)(c1ccc(Br)cc1)c1nc(-c2cccs2)oc1SCc1ccccc1F,inactive: -11.7%
6,COc1ccc(OC)c(CNS(=O)(=O)c2c(C(=O)N3CCCCCC3)c(C)n(C)c2C)c1,inactive: -9.07%
7,O=C(Cn1nnc(-c2ccc(Cl)cc2)n1)NCc1ccc(F)cc1,inactive: 1.48%
8,Cc1cccc(CNC(=O)C2CCN(c3nc4ccc(Cl)cc4[nH]3)CC2)c1,inactive: -8.21%
9,CCn1c2ccc(F)cc2c2nnc(SCCN3CCCCC3)nc21,inactive: -21.8%
10,Cn1cnc2c(F)c(Nc3ccc(Br)cc3Cl)c(C(=O)NOCCO)cc21,inactive: 6.11%
11,Cc1cc(C)c2c(C)c(C(=O)N3CCC(c4nc5ccccc5s4)CC3)oc2c1,inactive: 8.21%
12,COc1cc(C2c3c(oc4ccc(C)cc4c3=O)C(=O)N2Cc2ccc(F)cc2)ccc1O (centres undefined),inactive: -10.9%
13,Cc1nc2c3ccccc3nc(NNC(=O)CCC(=O)N3CCN(c4ccccc4F)CC3)n2n1,inactive: -7.41%
14,Cc1ccc(NC(=O)CCC(=O)N2CCOc3ccccc32)c(Cl)c1,inactive: -6.33%
15,CC1(C)O[C@@H]2C[C@H]3[C@@H]4C[C@H](F)C5=CC(=O)C=C[C@]5(C)[C@H]4[C@@H](O)C[C@]3(C)[C@]2(C(=O)CO)O1,inactive: -9.58%
16,Cc1ccc(C(=O)Nc2ccccc2F)cc1S(=O)(=O)N1CCOCC1,inactive: 2.32%
17,N#Cc1ccccc1NC(=O)C(=O)NCC(c1ccc2c(c1)OCO2)N1CCN(c2ccccc2)CC1 (centres undefined),inactive: 3.48%
18,Cc1nc2cccnc2n1-c1cccc(C(=O)NCCc2ccc(Cl)cc2)c1,inactive: 2.51%
19,Cc1c(C(=O)Nc2ccc(Br)cc2F)sc2ncnc(N(C)C3CCCCC3)c12,inactive: -5.77%
20,CCCCN(CC)C(=O)Cn1c(=O)n(-c2ccc(OCC)cc2)c(=O)c2c3c(sc21)CCCC3,inactive: -16.4%
21,O=C(Nc1ccc2nc(SCC(=O)N3CCCc4ccccc43)sc2c1)c1ccc(F)cc1,inactive: -14.6%

row,Compound,activation
1,COc1cc(CN2CCc3nc(N4CCN(c5ccccc5F)CC4)ncc3C2)ccc1OC(C)C,inactive: 1.03%
2,CCOC(=O)c1c(C)[nH]c(C)c1S(=O)(=O)NCC(=O)N(C)c1ccc(C)c(C)c1,inactive: -4.6%
3,O=C(Nc1c(C(=O)c2ccccc2)oc2ccccc12)c1cc(=O)c2ccccc2o1,inactive: -1.99%
4,Cn1cnc(S(=O)(=O)N2CCC(C(=O)N3CCN(c4cccc(C(F)(F)F)c4)CC3)CC2)c1,inactive: -5.9%
5,CSc1ncc(C(=O)Nc2ccccc2C(=O)c2ccccc2)c(C)n1,inactive: -5.34%
6,CCOC(=O)c1cnc2c(OC)cccc2c1Nc1cccc(O)c1,inactive: -40.4%
7,CC(C)(C)c1ccc(NC(=O)CSc2nnc3scc(-c4ccccc4)n23)cc1,inactive: 18.2%
8,COc1ccc(NC(=O)CSc2nc(-c3ccccc3)nc3cc(=O)[nH]n23)cc1,inactive: 13%
9,CCOC(=O)c1c(C)oc2nc(C)nc(NCc3cccc(OC)c3)c12,inactive: 4.34%
10,CCCCN(CC)C(=O)Cn1nc(C)c2c(C)n(-c3ccccc3)nc2c1=O,inactive: -4.69%
11,O=C(c1ccccc1)c1ccc2nc(Nc3ccccc3Cl)c3nncn3c2c1,inactive: -18%
12,CCOCN(C(=O)CSc1nc2ccccc2[nH]1)c1c(C)cccc1CC,inactive: 6.84%
13,Cc1ccc(N2CC(C(=O)Nc3ccc(Cl)cc3Cl)CC2=O)cc1 (centres undefined),inactive: -24.1%
14,Cc1cccc(Cn2c(SCc3ccc(C(=O)NC4CCCCC4)cc3)nc3cccnc32)c1,inactive: -13.6%
15,COc1ccccc1CNC(=O)CCCn1c(=O)c2ccccc2n(Cc2ccccc2F)c1=O,inactive: -6.65%
16,CCOC(=O)c1cc(OC(=O)c2ccc(OC)c(OC)c2)n(-c2ccccc2)n1,inactive: 4.83%
17,CCn1c(=O)cc(SCC(=O)N2CCN(c3cc(C)ccc3C)CC2)c2ccccc21,inactive: 35.4%
18,COc1ccccc1NC(=O)CCNS(=O)(=O)c1ccc2c(c1)CCCC(=O)N2,inactive: 25%
19,CCOc1ccccc1CNC(=O)c1cnc2sc(N3CCC(C)CC3)nn2c1=O,inactive: -10.7%
20,O=C(CSc1nnc(-c2ccccc2)o1)N1CCCc2ccccc21,inactive: -12.7%
21,CN(Cc1cc(Br)cc(Br)c1N)C1CCCCC1,active: 95.3%

row,Compound,activation
1,Cc1nn(C(C)C(=O)NCc2cccc(F)c2)c(=O)c2c1sc1ccccc12 (centres undefined),inactive: -14.9%
2,COc1ccc(C(=O)Nc2nnc(S(=O)(=O)N3CCOCC3)s2)cc1,inactive: 14.9%
3,CCc1ccc(-c2csc(-c3cc4cc(Br)ccc4oc3=O)n2)cc1,inactive: -1.77%
4,CCN(CC)C(=O)Cn1cc(SCC(=O)Nc2ccc(C)cc2)c2ccccc21,inactive: -4.58%
5,CCOC(=O)N1CCc2c(sc3c2c(=O)n(-c2ccc(Cl)cc2)c(=O)n3CC(=O)Nc2ccccc2)C1,inactive: -11.7%
6,Cc1ccc(C)c(N2CCN(C(=O)Cn3nc(Cc4cccnc4)c4ccccc4c3=O)CC2)c1,inactive: -57.8%
7,COc1ccc(C)cc1NC(=O)C(NS(=O)(=O)c1cccc2nsnc12)c1ccccc1 (centres undefined),inactive: -30.9%
8,Nc1c(C(=O)NCc2ccccc2)nnn1Cc1cccc(Br)c1,inactive: -19.2%
9,Cc1cccc(NC(=O)Cn2c(=O)n(CCC(=O)N3CCc4ccccc4C3)c(=O)c3ccccc32)c1,inactive: -5.61%
10,CSc1ccc(CCNC(=O)c2cc3c(-c4ccccc4F)nn(C)c3s2)cc1,inactive: 0.987%
11,CCOC(=O)c1cccc(NC(=O)c2cc3cc4ccc(C)cc4nc3s2)c1,inactive: 0.686%
12,Cc1cc(C)cc(Nc2nc3c(S(=O)(=O)c4cccc(Cl)c4)nnn3c3ccsc23)c1,inactive: -8.99%
13,CCOC(=O)c1cc(-c2ccc(F)cc2)n(CCC(=O)NC2CCCCC2)c1C,inactive: -25.8%
14,CCCCc1oc2ccccc2c1C(=O)c1cc(I)c(OCCN(CC)CC)c(I)c1,inactive: 34.1% and inactive: -24.2%
15,CCOC(=O)c1cc2c(=O)n3ccccc3nc2n(C)c1=NC(=O)c1cc2ccccc2o1,inactive: -7.27%
16,CC(=O)Nc1ccc(C(=O)CSc2nnc3ccc4ccccc4n23)cc1,inactive: -2.94%
17,O=S(=O)(NCc1ccc(Cl)cc1)c1ccc(N2CCCCS2(=O)=O)cc1,inactive: 27.5%
18,CCOc1ccc(NC(=O)NCCN2CCN(c3ccccc3F)CC2)cc1,inactive: -18.9%
19,COc1cccc(NC(=O)c2ccc(-c3nc(COc4ccc(C)cc4)c(C)o3)cc2)c1,inactive: -5.08%
20,Cc1cc(=O)n2nc(N3CCC(C(=O)Nc4ccc(Br)cc4F)CC3)sc2n1,inactive: -2.24%
21,Cc1ccc2c(c1)c1c(c(=O)n(-c3ccccc3C)c(=O)n1CC(=O)NCC1CCCO1)n2C (centres undefined),inactive: -55%
